Laboratory results as given in the supplement of paper PMC12582362.
Where a name gives a salt, the structure may show the parent alone. The whole screen tested about 1,500 compounds, of which about 30 (2%) showed activity.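 How the source made its calls: active = robust z-score below -2; a few such results were not called.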 Some of the results follow.

These molecules were tested on optoTopBP1 Flp-In 293 T-REx (HEK293) cells (assay: light-induced TopBP1 condensate (nuclear foci) count, plate-normalised robust z-score vs non-control wells; higher = more TopBP1 condensates (negative = condensation inhibitor), active = hit call of the paper). Conditions: 10 µM; incubation time 2 h.
With `c1ccc2c(c1)Nc1ccccc1S2` [Phenothiazine] the “light-induced TopBP1 condensate (z-score)” value was inactive: -0.856. In the case of `CC(=O)O[C@H]1C[C@@H]2CC[C@@H]3[C@H](CC[C@@]4(C)[C@H]3C[C@H]([N+]3(C)CCCCC3)[C@@H]4OC(C)=O)[C@@]2(C)C[C@@H]1[N+]1(C)CCCCC1` [Pancuronium bromide], the “light-induced TopBP1 condensate (z-score)” value is reported as inactive: 0.347. `C=CCN1CC[C@]23c4c5ccc(O)c4O[C@H]2C(=O)CC[C@@]3(O)[C@H]1C5` [Naloxone hydrochloride] was tested, and the “light-induced TopBP1 condensate (z-score)” value was inactive: 0.122. With `CCCC(C)C1(CC)C(=O)NC(=O)NC1=O` (centres undefined) [Pentobarbital] the “light-induced TopBP1 condensate (z-score)” value was inactive: -1.22. `C[C@]12CCC(=O)C=C1C=C[C@@H]1[C@@H]2CC[C@@]2(C)[C@H]1CC[C@@]2(O)CCC(=O)O` [Canrenoic acid potassium salt] was tested, and the “light-induced TopBP1 condensate (z-score)” value was inactive: 1.33. In the case of `Cc1cccc(C)c1NC(=O)CN1CCCC1=O` [Nefiracetam], the “light-induced TopBP1 condensate (z-score)” value is reported as inactive: 0.0125. In the case of `CC[C@@H](C(=O)[C@@H](C)[C@@H](O)[C@H](C)[C@@H]1O[C@@H]([C@@H](CC)C(=O)O)CC[C@@H]1C)[C@H]1O[C@]2(C=C[C@@H](O)[C@]3(CC[C@@](C)([C@H]4CC[C@](O)(CC)[C@H](C)O4)O3)O2)[C@H](C)C[C@@H]1C` [Salinomycin sodium], the “light-induced TopBP1 condensate (z-score)” value is reported as inactive: -1.62. In the case of `C[C@]12CC[C@H](O)C[C@H]1CC[C@@H]1[C@@H]2CC[C@]2(C)[C@@H](C3=CC(=O)OC3)CC[C@]12O` [Digitoxigenin], the “light-induced TopBP1 condensate (z-score)” value is reported as active: -2.06. With `CC(C)c1cccc(C(C)C)c1O` [Propofol] the “light-induced TopBP1 condensate (z-score)” value was inactive: -0.815. `Oc1ccc2c3c1O[C@H]1[C@@H](O)CC[C@@]4(O)[C@@H](C2)N(CC2CCC2)CC[C@]314` [Nalbuphine hydrochloride] was tested, and the “light-induced TopBP1 condensate (z-score)” value was inactive: -0.29. In the case of `O=C(NCNC(=O)NC1C(=O)NC(=O)N1CO)NC1C(=O)NC(=O)N1CO` (centres undefined) [Imidurea], the “light-induced TopBP1 condensate (z-score)” value is reported as inactive: 1.81. For `CC(=O)O[C@H]1CC[C@@]2(C)C(=CC[C@@H]3[C@@H]2CC[C@]2(C)C(=O)CC[C@@H]32)C1` [Dehydroisoandosterone 3-acetate], the “light-induced TopBP1 condensate (z-score)” value was inactive: -0.674. For `CN1C[C@H](CNC(=O)OCc2ccccc2)C[C@@H]2c3cccc4c3c(cn4C)C[C@H]21` [Metergoline], the “light-induced TopBP1 condensate (z-score)” value was inactive: 0.379. For `COc1cc2c(c(OC)c1OC)-c1ccc(OC)c(=O)cc1[C@@H](NC(C)=O)CC2` [Colchicine], the “light-induced TopBP1 condensate (z-score)” value was inactive: -1.18. For `C[C@]12CC[C@H](O)CC1=CC[C@@H]1[C@@H]2CC[C@]2(C)C(=O)CC[C@@H]12` [Prasterone], the “light-induced TopBP1 condensate (z-score)” value was inactive: 0.107. `CC[N+]1(C)CCCC(OC(=O)C(O)(c2ccccc2)c2ccccc2)C1` (centres undefined) [Pipenzolate bromide] was tested, and the “light-induced TopBP1 condensate (z-score)” value was inactive: 0.771. For `c1ccc2c(c1)OCC(C1=NCCN1)O2` (centres undefined) [Idazoxan hydrochloride], the “light-induced TopBP1 condensate (z-score)” value was inactive: -1.16. For `CCCCCC[C@H]1C(=O)O[C@H](C)[C@H](NC(=O)c2cccc(NC=O)c2O)C(=O)O[C@@H](C)[C@@H]1OC(=O)CC(C)C` [Antimycin A], the “light-induced TopBP1 condensate (z-score)” value was inactive: -0.517. `Cc1cc(C(C#N)c2ccc(Cl)cc2)c(Cl)cc1NC(=O)c1cc(I)cc(I)c1O` (centres undefined) [Closantel] was tested, and the “light-induced TopBP1 condensate (z-score)” value was inactive: 0.371. With `C[C@@H]1C[C@@H]([C@H](O)CC2CC(=O)NC(=O)C2)C(=O)[C@@H](C)C1` [Cycloheximide] the “light-induced TopBP1 condensate (z-score)” value was inactive: -0.598. With `CCC1(C2=NCCN2)Cc2ccccc2O1` (centres undefined) [Efaroxan hydrochloride] the “light-induced TopBP1 condensate (z-score)” value was inactive: -0.341. For `CC[C@@H](CO)NC(=O)[C@@H]1C=C2c3cccc4[nH]cc(c34)C[C@H]2N(C)C1` [Methylergometrine maleate], the “light-induced TopBP1 condensate (z-score)” value was inactive: 1.36. `O=c1[nH]oc2c1CCNC2` [THIP Hydrochloride] was tested, and the “light-induced TopBP1 condensate (z-score)” value was inactive: 2.04. `CC(N)C(O)c1ccccc1` (centres undefined) [Phenylpropanolamine hydrochloride] was tested, and the “light-induced TopBP1 condensate (z-score)” value was inactive: 0.254. In the case of `O=C(CCCN1CCC2(CC1)C(=O)NCN2c1ccccc1)c1ccc(F)cc1` [Spiperone], the “light-induced TopBP1 condensate (z-score)” value is reported as inactive: -0.487. `O=[N+]([O-])O[C@H]1CO[C@H]2[C@@H]1OC[C@H]2O[N+](=O)[O-]` [Isosorbide dinitrate] was tested, and the “light-induced TopBP1 condensate (z-score)” value was inactive: -0.205. `C=C1CC[C@@]2(O)[C@H]3Cc4ccc(O)c5c4[C@@]2(CCN3CC2CC2)[C@H]1O5` [Nalmefene hydrochloride] was tested, and the “light-induced TopBP1 condensate (z-score)” value was inactive: -0.278. In the case of `NCC1(CC(=O)O)CCCCC1` [Gabapentin], the “light-induced TopBP1 condensate (z-score)” value is reported as inactive: -0.035. In the case of `CC(O)(CS(=O)(=O)c1ccc(F)cc1)C(=O)Nc1ccc(C#N)c(C(F)(F)F)c1` (centres undefined) [Bicalutamide], the “light-induced TopBP1 condensate (z-score)” value is reported as inactive: -0.649. For `CCOC(=O)c1cncn1[C@H](C)c1ccccc1` [Etomidate], the “light-induced TopBP1 condensate (z-score)” value was inactive: 0.346. For `Oc1ccc(Cl)cc1Cc1cc(Cl)ccc1O` [Dichlorophen], the “light-induced TopBP1 condensate (z-score)” value was inactive: -0.287. In the case of `CCCC(C)(COC(N)=O)COC(=O)NC(C)C` (centres undefined) [Carisoprodol], the “light-induced TopBP1 condensate (z-score)” value is reported as inactive: 0.417. `CCC1(C)CC(=O)NC(=O)C1` [Bemegride] was tested, and the “light-induced TopBP1 condensate (z-score)” value was inactive: -0.511. `C[N+]1(C)CCCC(OC(=O)C(O)(c2ccccc2)c2ccccc2)C1` (centres undefined) [Mepenzolate bromide] was tested, and the “light-induced TopBP1 condensate (z-score)” value was inactive: 1.82. With `OC(c1ccccc1)(c1ccccc1)C1CCNCC1` [Azacyclonol] the “light-induced TopBP1 condensate (z-score)” value was inactive: 0.431. For `NC(=O)OCCCc1ccccc1` [Phenprobamate], the “light-induced TopBP1 condensate (z-score)” value was inactive: -1.69. In the case of `O=C(CCCN1CCC(n2c(=O)[nH]c3ccccc32)CC1)c1ccc(F)cc1` [Benperidol], the “light-induced TopBP1 condensate (z-score)” value is reported as inactive: 0.468. In the case of `C=CCC1(CC(C)C)C(=O)NC(=O)NC1=O` [Butalbital], the “light-induced TopBP1 condensate (z-score)” value is reported as inactive: 0.276. In the case of `C[C@@H]1CN([C@H]2CC[C@](C#N)(c3ccc(F)cc3)CC2)CC[C@]1(C(=O)O)c1ccccc1` [Levocabastine hydrochloride], the “light-induced TopBP1 condensate (z-score)” value is reported as inactive: -0.0572. With `COc1ccc(OC)c(C(O)C(C)N)c1` (centres undefined) [Methoxamine hydrochloride] the “light-induced TopBP1 condensate (z-score)” value was inactive: 0.164. For `CCC(=O)O[C@H]1CC[C@H]2[C@@H]3CCC4=CC(=O)CC[C@]4(C)[C@H]3CC[C@]12C` [Testosterone propionate], the “light-induced TopBP1 condensate (z-score)” value was inactive: -0.531. In the case of `O=P1(N(CCCl)CCCl)NCCCO1` (centres undefined) [Cyclophosphamide], the “light-induced TopBP1 condensate (z-score)” value is reported as inactive: 0.625. `C[C@]12COC(=O)C[C@@H]1CC[C@@H]1[C@@H]2CC[C@@]2(C)[C@H]1CC[C@]2(C)O` [Oxandrolone] was tested, and the “light-induced TopBP1 condensate (z-score)” value was inactive: 0.162. For `CN1C(=O)CCS(=O)(=O)C1c1ccc(Cl)cc1` (centres undefined) [Chlormezanone], the “light-induced TopBP1 condensate (z-score)” value was inactive: 0.503. In the case of `COC[C@@H](NC(C)=O)C(=O)NCc1ccccc1` [Lacosamide], the “light-induced TopBP1 condensate (z-score)” value is reported as inactive: -0.609. `C[C@]12C/C(=C/O)C(=O)C[C@@H]1CC[C@@H]1[C@@H]2CC[C@@]2(C)[C@H]1CC[C@]2(C)O` [Oxymetholone] was tested, and the “light-induced TopBP1 condensate (z-score)” value was inactive: -1.66. `CC(=O)[C@H]1CC[C@H]2[C@@H]3CC[C@H]4C[C@H](O)CC[C@]4(C)[C@H]3C(=O)C[C@]12C` [Alfaxalone] was tested, and the “light-induced TopBP1 condensate (z-score)” value was inactive: 1.06. `C=C1C[C@@H]2[C@H](CC[C@]3(C)C(=O)CC[C@@H]23)[C@@]2(C)C=CC(=O)C=C12` [Exemestane] was tested, and the “light-induced TopBP1 condensate (z-score)” value was inactive: -0.706. `COc1ccc(C(CN(C)C)C2(O)CCCCC2)cc1` (centres undefined) [Venlafaxine] was tested, and the “light-induced TopBP1 condensate (z-score)” value was inactive: 1.09. `CCN(CC)CCOC(=O)C(O)(c1ccccc1)c1ccccc1` [Benactyzine hydrochloride] was tested, and the “light-induced TopBP1 condensate (z-score)” value was inactive: -0.745. `CNC(=O)Oc1ccc2c(c1)[C@]1(C)CCN(C)[C@@H]1N2C` [Eserine hemisulfate salt] was tested, and the “light-induced TopBP1 condensate (z-score)” value was inactive: -0.639. In the case of `CN(C)C(=O)Oc1cccc([N+](C)(C)C)c1` [Neostigmine bromide], the “light-induced TopBP1 condensate (z-score)” value is reported as inactive: 0.607. For `CC(C)(N)Cc1ccccc1` [Phentermine hydrochloride], the “light-induced TopBP1 condensate (z-score)” value was inactive: 0.682. With `CCNCC(O)c1cccc(O)c1` (centres undefined) [Etilefrine hydrochloride] the “light-induced TopBP1 condensate (z-score)” value was inactive: 0.748. For `CC(C)C[C@H]1C(=O)N2CCC[C@H]2[C@]2(O)O[C@](NC(=O)[C@@H]3C=C4c5cccc6[nH]c(Br)c(c56)C[C@H]4N(C)C3)(C(C)C)C(=O)N12` [Bromocryptine mesylate], the “light-induced TopBP1 condensate (z-score)” value was inactive: 1.17. For `CN1[C@@H]2CC[C@H]1C[C@@H](OC(=O)C(CO)c1ccccc1)C2` (some centres undefined) [Atropine sulfate monohydrate], the “light-induced TopBP1 condensate (z-score)” value was inactive: -0.15. With `C[C@]12CCC(=O)C(O)=C1CC[C@@H]1[C@@H]2CC[C@]2(C)C(=O)CC[C@@H]12` [Formestane] the “light-induced TopBP1 condensate (z-score)” value was inactive: 0.41. In the case of `CNC(C)(C)Cc1ccccc1` [Mephentermine hemisulfate], the “light-induced TopBP1 condensate (z-score)” value is reported as inactive: -0.167. `NCCCNCCSP(=O)(O)O` [Amifostine] was tested, and the “light-induced TopBP1 condensate (z-score)” value was inactive: 0.691. For `CC1OC(OC2/C=C/C=C/C=C/C=C/CC/C=C/C=C/[C@H](C)[C@@H](O)[C@@H](C)[C@H](C)OC(=O)CC(O)CC(O)CC(O)CCC(O)C(O)C[C@]3(O)CC(O)C(C(=O)O)C(C2)O3)C(O)C(N)C1O` (some centres undefined) [Nystatine], the “light-induced TopBP1 condensate (z-score)” value was inactive: 0.546. `O=c1[nH]c2ccccc2n1C1CCN(CCCC(c2ccc(F)cc2)c2ccc(F)cc2)CC1` [Pimozide] was tested, and the “light-induced TopBP1 condensate (z-score)” value was inactive: -1.48. In the case of `C#CCN(C)[C@H](C)Cc1ccccc1` [Selegiline hydrochloride], the “light-induced TopBP1 condensate (z-score)” value is reported as inactive: -0.225. For `CN(C)C(=O)Oc1ccc[n+](C)c1` [Pyridostigmine iodide], the “light-induced TopBP1 condensate (z-score)” value was inactive: -0.114. With `C[C@]12CC[C@@H](O)C[C@H]1CC[C@@H]1[C@@H]2CC[C@]2(C)C(=O)CC[C@@H]12` [3-alpha-Hydroxy-5-beta-androstan-17-one] the “light-induced TopBP1 condensate (z-score)” value was inactive: -0.529.
